Test results published in the supplement of paper PMC9135407.
Several values for one entry are separate records, joined by “and”; a condition that tells them apart may be missing. Equal entries are not always repeated. Structures can show the parent of a compound that is named as a salt. Out of some 5,800 compounds screened, about 620 (11%) showed activity.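 The calls were made as follows: active = score above a cut-off or among the top three wells of a plate; in these data no inactive exceeds 0.85.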 The entries are a selection whose mix differs from that of the whole data set.

Tested on: primary human hepatic stellate cells (donor 1)
Experiment: scaled lipid accumulation score (0 = DMSO-like, 1 = nortriptyline-like); higher = stronger HSC inactivation (lipid re-accumulation), active = hit call of the paper
Details: 48 h
[1] = library stock concentration: 3.33 mM
[2] = library stock concentration: 10 mM
[3] = library stock concentration: 1 mM
[4] = library stock concentration: 80 uM
[5] = library stock concentration: 400 uM
[6] = library stock concentration: 2 mM

How did the “scaled lipid accumulation score” value turn out when `O=C(/C=C/C=C/c1ccc2c(c1)OCO2)N1CCCCC1` [Piperine] was run?
The value was inactive: 0.146.

And the “scaled lipid accumulation score” value [1]?
The value was inactive: 0.026.

And the “scaled lipid accumulation score” value (library stock concentration: 7 mM)?
Its value is inactive: ≤ 0.

What about the “scaled lipid accumulation score” value [2] of the same compound?
Its value is inactive: ≤ 0.

`COc1ccc2[nH]c(C(=O)c3ccccc3)cc2c1` was tested. Which “scaled lipid accumulation score” value [2] did it give?
The value was inactive: 0.038.

With `O=C(O)C(S)=Cc1c[nH]c2ccc(F)cc12` as the compound, how does the “scaled lipid accumulation score” value [1] read?
The value was inactive: ≤ -0.009.

And the “scaled lipid accumulation score” value [2]?
Its value is inactive: 0.118.

How did the “scaled lipid accumulation score” value turn out when `CCC(=O)OCC(=O)[C@@]1(OC(=O)CC)[C@@H](C)C[C@H]2[C@@H]3CCC4=CC(=O)C=C[C@]4(C)[C@@]3(Cl)[C@@H](O)C[C@@]21C` [Beclomethasone dipropionate] was run?
Its value is inactive: ≤ 0.

And the “scaled lipid accumulation score” value [1]?
The value was inactive: ≤ 0.

What about the “scaled lipid accumulation score” value [2] of the same compound?
Its value is inactive: ≤ 0.

With `CCN1CCN(Cc2ccc(Nc3ncc(F)c(-c4cc(F)c5nc(C)n(C(C)C)c5c4)n3)nc2)CC1.CS(=O)(=O)O` as the compound, how does the “scaled lipid accumulation score” value [1] read?
The value was active: 0.963.

What about the “scaled lipid accumulation score” value [2] of the same compound?
Its value is active: 0.943.

Which “scaled lipid accumulation score” value [2] does the source give for `COCC(=O)O[C@]1(CCN(C)CCCc2nc3ccccc3[nH]2)CCc2cc(F)ccc2[C@@H]1C(C)C` [Mibefradil dihydrochloride] here?
The value was inactive: ≤ -0.055 and inactive: 0.501.

For `CC(C(=O)Nc1cccc(/N=C/c2c(O)ccc3ccccc23)c1)c1ccccc1` (centres undefined) [Salermide], which “scaled lipid accumulation score” value [3] is on record?
Its value is inactive: ≤ 0.

`CC(C)NCC(O)c1cc(O)cc(O)c1` (centres undefined) [Metaproterenol hemisulfate] was tested. Which “scaled lipid accumulation score” value [2] did it give?
Its value is inactive: ≤ -0.055.

Which results are given for `CC(C)NCC(O)c1cc(O)cc(O)c1` (centres undefined) [Metaproterenol]?
scaled lipid accumulation score (library stock concentration: 9.5 mM): inactive: 0.026; scaled lipid accumulation score [2]: inactive: ≤ 0

`CC(C)NCC(O)c1cc(O)cc(O)c1` (centres undefined) [Metaproterenol sulfate, orciprenaline sulfate] was tested. Which “scaled lipid accumulation score” value did it give?
The value was inactive: ≤ 0.

`CC(=O)/C(C)=N/O` [2,3-Butanedione monoxime] was tested. Which “scaled lipid accumulation score” value [2] did it give?
Its value is inactive: 0.081.

`CCCn1cnc2c1c(=O)n(CCCCC(C)=O)c(=O)n2C` [Propentofylline] was tested. Which “scaled lipid accumulation score” value [2] did it give?
Its value is inactive: ≤ 0.

`CCCCCCCCCCCCCCSCC(=O)O` [Tetradecylthioacetic acid] was tested. Which “scaled lipid accumulation score” value [2] did it give?
Its value is inactive: ≤ 0.

With `Cl.OCCNCCCOc1cccc(Cl)c1Cl` [2,3-DCPE hydrochloride] as the compound, how does the “scaled lipid accumulation score” value [2] read?
Its value is active: 1.14.

`CCc1cc2c(c(CC)n1)CCC(=O)N2Cc1ccc(-c2ccccc2-c2nn[nH]n2)cc1` [ZD 7155 hydrochloride] was tested. Which “scaled lipid accumulation score” value [2] did it give?
Its value is inactive: 0.009.

For `O=C(O)CN(CCN(CC(=O)O)CC(=O)O)CCN(CC(=O)O)CC(=O)O` [Diethylenetriaminepentaacetic acid], which “scaled lipid accumulation score” value [2] is on record?
Its value is inactive: 0.134.

For `O=C(O)CN(CCN(CC(=O)O)CC(=O)O)CCN(CC(=O)O)CC(=O)O` [Pentetic acid], which “scaled lipid accumulation score” value is on record?
Its value is inactive: ≤ 0.

And the “scaled lipid accumulation score” value (library stock concentration: 5.1 mM)?
Its value is inactive: 0.67.

With `C#CCN(C)CCCOc1ccc(Cl)cc1Cl` [Clorgyline hydrochloride] as the compound, how does the “scaled lipid accumulation score” value read?
Its value is inactive: 0.043.

And the “scaled lipid accumulation score” value [2]?
The value was inactive: 0.196.

How did the “scaled lipid accumulation score” value [2] turn out when `C#CCN(C)CCCOc1ccc(Cl)cc1Cl` was run?
Its value is inactive: ≤ 0.

How did the “scaled lipid accumulation score” value turn out when `Cn1c(=O)c2c(ncn2CCO)n(C)c1=O` [Etofylline] was run?
Its value is inactive: ≤ 0.

Which “scaled lipid accumulation score” value [4] does the source give for `CCc1cnn2c(NCc3ccc[n+]([O-])c3)cc(N3CCCC[C@H]3CCO)nc12` [Dinaciclib] here?
The value was inactive: 0.104.

What about the “scaled lipid accumulation score” value [5] of the same compound?
Its value is inactive: 0.036.

What about the “scaled lipid accumulation score” value [6] of the same compound?
Its value is inactive: 0.16.

And the “scaled lipid accumulation score” value [2]?
Its value is inactive: 0.433.

For `CCc1cnn2c(NCc3ccc[n+]([O-])c3)cc(N3CCCC[C@H]3CCO)nc12`, which “scaled lipid accumulation score” value [1] is on record?
Its value is inactive: 0.422.

And the “scaled lipid accumulation score” value [2]?
Its value is inactive: 0.448.

With `COC(C)(C)CCCC(C)C/C=C/C(C)=C/C(=O)O` (centres undefined) [Methoprene acid] as the compound, how does the “scaled lipid accumulation score” value [3] read?
Its value is inactive: ≤ -0.021.

`O=C1NC(=O)[C@@H](c2cn3c4c(cccc24)CCC3)[C@@H]1c1c[nH]c2ccccc12` [Tivantinib] was tested. Which “scaled lipid accumulation score” value [4] did it give?
Its value is inactive: ≤ -0.009.

What about the “scaled lipid accumulation score” value [5] of the same compound?
The value was inactive: 0.071.

What about the “scaled lipid accumulation score” value [6] of the same compound?
The value was inactive: ≤ -0.009.

What about the “scaled lipid accumulation score” value [2] of the same compound?
Its value is inactive: 0.169.

Which “scaled lipid accumulation score” value [1] does the source give for `Cn1nc2c3c(cccc31)C(=O)c1ccccc1-2` [JNK Inhibitor, Negative Control] here?
The value was inactive: ≤ 0.

For `C[C@H]1Oc2cc(cnc2N)-c2c(nn(C)c2C#N)CN(C)C(=O)c2ccc(F)cc21`, which “scaled lipid accumulation score” value [4] is on record?
Its value is inactive: ≤ 0.

And the “scaled lipid accumulation score” value [5]?
Its value is inactive: ≤ 0.

And the “scaled lipid accumulation score” value [6]?
Its value is inactive: 0.031.

What about the “scaled lipid accumulation score” value [2] of the same compound?
Its value is inactive: ≤ 0.

Which “scaled lipid accumulation score” value [1] does the source give for `O=c1cc[nH]c(=O)[nH]1` [Uracil] here?
Its value is inactive: ≤ 0.

And the “scaled lipid accumulation score” value [2]?
The value was inactive: ≤ -0.001.

How did the “scaled lipid accumulation score” value [2] turn out when `O=c1cc[nH]c(=O)[nH]1` was run?
Its value is inactive: ≤ 0.

How did the “scaled lipid accumulation score” value [3] turn out when `CCCCCCCCCCCCCCCCCC(=O)NCCO` [Stearoyl Ethanolamide] was run?
The value was inactive: ≤ 0.

With `Cc1noc(-c2ccc(CSCCC(=O)O)cc2)c1NC(=O)OC(C)c1ccccc1Cl` (centres undefined) as the compound, how does the “scaled lipid accumulation score” value [1] read?
The value was inactive: 0.003.

And the “scaled lipid accumulation score” value [2]?
Its value is inactive: ≤ 0.

How did the “scaled lipid accumulation score” value (library stock concentration: 20 mM) turn out when `CC(N)=NCc1cccc(CN)c1` was run?
Its value is inactive: ≤ -0.021.

`COc1ccc(-c2cc(=O)c3c(OC)c(OC)c(OC)c(OC)c3o2)cc1OC` [Nobiletin] was tested. Which “scaled lipid accumulation score” value [1] did it give?
The value was inactive: ≤ 0.

What about the “scaled lipid accumulation score” value [2] of the same compound?
Its value is inactive: 0.152 and inactive: ≤ 0.

How did the “scaled lipid accumulation score” value [3] turn out when `CC/C=C\C/C=C\C/C=C\C/C=C\C/C=C\C/C=C\CCC(=O)O` [Docosahexaenoic acid(22:6 n-3)] was run?
Its value is inactive: ≤ -0.021.

For `CC/C=C\C/C=C\C/C=C\C/C=C\C/C=C\C/C=C\CCC(=O)O` [Docosahexaenoic Acid], which “scaled lipid accumulation score” value [3] is on record?
The value was inactive: ≤ 0.

For `CS(=O)(=O)CCNCc1nc(-c2ccc3ncnc(Nc4ccc(OCc5cccc(F)c5)c(Cl)c4)c3c2)cs1.Cl.Cl`, which “scaled lipid accumulation score” value [2] is on record?
Its value is active: 1.38.

`CCC[C@@H]1C[C@@H](C(=O)N[C@@H]([C@H]2O[C@H](SC)[C@H](O)[C@@H](O)[C@H]2O)[C@@H](C)O)N(C)C1` [Lincomycin hydrochloride] was tested. Which “scaled lipid accumulation score” value did it give?
Its value is inactive: ≤ 0.

What about the “scaled lipid accumulation score” value (library stock concentration: 4.5 mM) of the same compound?
Its value is inactive: ≤ 0.

What about the “scaled lipid accumulation score” value [2] of the same compound?
The value was inactive: ≤ 0.

How did the “scaled lipid accumulation score” value (library stock concentration: 4.9 mM) turn out when `CCC[C@@H]1C[C@@H](C(=O)N[C@@H]([C@H]2O[C@H](SC)[C@H](O)[C@@H](O)[C@H]2O)[C@@H](C)O)N(C)C1` [Lincomycin] was run?
Its value is inactive: ≤ -0.006.

Which results are given for `CCC[C@@H]1C[C@@H](C(=O)N[C@@H]([C@H]2O[C@H](SC)[C@H](O)[C@@H](O)[C@H]2O)[C@@H](C)O)N(C)C1` [Lincomycin HCl]?
scaled lipid accumulation score [1]: inactive: ≤ 0; scaled lipid accumulation score [2]: inactive: ≤ 0

How did the “scaled lipid accumulation score” value [4] turn out when `N#Cc1c(Oc2ccc(F)c(NC(=O)Cc3cccc(C(F)(F)F)c3)c2)ccc2nc(NC(=O)C3CC3)sc12` was run?
The value was inactive: ≤ 0.

And the “scaled lipid accumulation score” value [5]?
Its value is inactive: ≤ 0.

What about the “scaled lipid accumulation score” value [6] of the same compound?
Its value is inactive: ≤ 0.

What about the “scaled lipid accumulation score” value [1] of the same compound?
Its value is inactive: ≤ -0.009.

What about the “scaled lipid accumulation score” value [2] of the same compound?
The value was inactive: ≤ 0.
